The target of experiment [1] is T1, DIP2A(261-320) region with PXXP motifs (UniProt Q8BWT5).
T1 sequence: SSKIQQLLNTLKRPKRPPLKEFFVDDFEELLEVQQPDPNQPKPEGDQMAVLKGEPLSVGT
As to the kind of experiment: pull-down; 'binding assay' of Fig 4B with DIP2A261-320; who was held is not told.

Amino acid sequences for entries named in this document (tags omitted). A change or cut given only in a name is not applied to a line headed by its entry.
UniProt Q60598: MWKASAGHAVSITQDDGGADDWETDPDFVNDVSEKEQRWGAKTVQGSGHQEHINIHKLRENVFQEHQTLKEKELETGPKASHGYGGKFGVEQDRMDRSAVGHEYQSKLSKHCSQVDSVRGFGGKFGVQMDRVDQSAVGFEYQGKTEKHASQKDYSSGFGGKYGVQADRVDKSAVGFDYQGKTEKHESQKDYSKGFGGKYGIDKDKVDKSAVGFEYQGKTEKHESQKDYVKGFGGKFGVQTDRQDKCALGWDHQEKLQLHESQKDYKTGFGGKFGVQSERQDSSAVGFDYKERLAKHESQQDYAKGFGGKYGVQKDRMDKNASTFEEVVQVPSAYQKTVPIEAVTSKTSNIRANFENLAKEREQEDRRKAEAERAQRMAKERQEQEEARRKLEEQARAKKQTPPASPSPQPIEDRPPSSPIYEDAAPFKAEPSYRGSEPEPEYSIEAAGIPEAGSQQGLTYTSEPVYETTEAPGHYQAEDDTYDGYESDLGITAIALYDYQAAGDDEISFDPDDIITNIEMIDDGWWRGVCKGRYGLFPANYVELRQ
UniProt Q4ACU6: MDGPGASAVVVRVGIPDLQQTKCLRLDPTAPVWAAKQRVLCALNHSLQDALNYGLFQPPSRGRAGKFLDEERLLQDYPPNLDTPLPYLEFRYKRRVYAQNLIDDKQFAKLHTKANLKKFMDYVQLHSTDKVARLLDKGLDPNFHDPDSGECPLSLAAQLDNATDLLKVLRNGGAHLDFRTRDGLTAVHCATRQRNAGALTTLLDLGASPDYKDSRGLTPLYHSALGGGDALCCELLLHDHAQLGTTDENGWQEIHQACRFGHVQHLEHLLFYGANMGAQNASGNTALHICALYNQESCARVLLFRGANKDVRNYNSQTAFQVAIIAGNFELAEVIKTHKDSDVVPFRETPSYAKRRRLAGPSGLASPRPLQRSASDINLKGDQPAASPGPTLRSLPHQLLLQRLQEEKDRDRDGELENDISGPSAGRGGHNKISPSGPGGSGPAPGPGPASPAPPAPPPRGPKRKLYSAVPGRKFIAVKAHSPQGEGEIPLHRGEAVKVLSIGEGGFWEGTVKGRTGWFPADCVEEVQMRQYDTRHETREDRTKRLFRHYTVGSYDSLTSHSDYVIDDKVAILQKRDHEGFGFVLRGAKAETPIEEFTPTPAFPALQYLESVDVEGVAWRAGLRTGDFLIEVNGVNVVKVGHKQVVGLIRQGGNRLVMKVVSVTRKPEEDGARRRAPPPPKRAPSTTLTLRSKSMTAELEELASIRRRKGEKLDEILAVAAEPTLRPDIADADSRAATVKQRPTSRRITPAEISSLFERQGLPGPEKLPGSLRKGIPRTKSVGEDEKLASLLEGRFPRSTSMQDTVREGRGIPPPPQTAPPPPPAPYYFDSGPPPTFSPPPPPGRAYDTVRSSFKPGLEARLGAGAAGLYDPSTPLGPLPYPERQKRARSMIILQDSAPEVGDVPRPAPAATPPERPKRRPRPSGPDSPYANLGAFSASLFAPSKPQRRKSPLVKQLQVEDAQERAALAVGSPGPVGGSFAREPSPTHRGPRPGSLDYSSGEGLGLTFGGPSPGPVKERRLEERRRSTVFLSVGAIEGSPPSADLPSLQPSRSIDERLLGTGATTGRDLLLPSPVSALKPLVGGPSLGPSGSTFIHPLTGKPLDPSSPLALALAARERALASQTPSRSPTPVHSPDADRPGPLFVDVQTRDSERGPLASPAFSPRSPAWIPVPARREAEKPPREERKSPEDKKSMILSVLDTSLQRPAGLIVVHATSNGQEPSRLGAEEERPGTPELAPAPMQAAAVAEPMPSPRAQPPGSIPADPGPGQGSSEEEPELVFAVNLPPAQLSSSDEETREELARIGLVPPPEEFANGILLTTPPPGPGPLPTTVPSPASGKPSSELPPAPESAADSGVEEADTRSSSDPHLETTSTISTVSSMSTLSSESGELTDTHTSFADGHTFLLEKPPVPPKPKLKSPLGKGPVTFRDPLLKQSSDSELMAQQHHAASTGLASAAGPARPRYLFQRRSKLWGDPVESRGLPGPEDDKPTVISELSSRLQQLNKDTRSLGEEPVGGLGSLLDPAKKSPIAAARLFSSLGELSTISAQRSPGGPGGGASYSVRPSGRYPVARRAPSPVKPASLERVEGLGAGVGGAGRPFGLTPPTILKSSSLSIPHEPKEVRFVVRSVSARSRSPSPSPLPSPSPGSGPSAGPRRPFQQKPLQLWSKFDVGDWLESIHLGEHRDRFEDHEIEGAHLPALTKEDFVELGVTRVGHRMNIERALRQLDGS

Experiment [2] concerns the target FLAG-tagged full-length DIP2A (disconnected-interacting protein homolog 2 A) (UniProt Q8BWT5). As to the kind of experiment: co-IP; HEK293 cells co-transfected with HA-cortactin and FLAG-tagged full-length or truncated DIP2A; IP with anti-FLAG antibody, blot for HA-cortactin.
Experiment [3] has as its target T2, FLAG-tagged truncated DIP2A(321-914) (UniProt Q8BWT5).
T2 sequence: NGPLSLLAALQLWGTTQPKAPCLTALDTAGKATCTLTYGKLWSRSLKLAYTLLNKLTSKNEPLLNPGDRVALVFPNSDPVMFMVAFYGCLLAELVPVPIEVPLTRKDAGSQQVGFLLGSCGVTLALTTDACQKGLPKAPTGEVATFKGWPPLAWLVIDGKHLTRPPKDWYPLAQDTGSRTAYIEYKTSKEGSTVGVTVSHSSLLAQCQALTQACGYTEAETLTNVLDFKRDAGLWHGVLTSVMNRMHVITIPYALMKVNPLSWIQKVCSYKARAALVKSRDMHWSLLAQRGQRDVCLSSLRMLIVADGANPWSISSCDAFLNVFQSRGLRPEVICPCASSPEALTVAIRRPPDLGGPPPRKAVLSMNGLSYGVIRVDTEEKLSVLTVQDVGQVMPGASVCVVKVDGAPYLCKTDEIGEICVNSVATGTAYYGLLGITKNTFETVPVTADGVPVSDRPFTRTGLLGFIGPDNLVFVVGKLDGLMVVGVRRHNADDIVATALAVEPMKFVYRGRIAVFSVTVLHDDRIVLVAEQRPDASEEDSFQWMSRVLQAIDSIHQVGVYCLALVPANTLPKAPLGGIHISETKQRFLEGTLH
The description is as above.

Experiment [4] has as its target T3, FLAG-tagged truncated DIP2A(915-1,562) (UniProt Q8BWT5).
T3 sequence: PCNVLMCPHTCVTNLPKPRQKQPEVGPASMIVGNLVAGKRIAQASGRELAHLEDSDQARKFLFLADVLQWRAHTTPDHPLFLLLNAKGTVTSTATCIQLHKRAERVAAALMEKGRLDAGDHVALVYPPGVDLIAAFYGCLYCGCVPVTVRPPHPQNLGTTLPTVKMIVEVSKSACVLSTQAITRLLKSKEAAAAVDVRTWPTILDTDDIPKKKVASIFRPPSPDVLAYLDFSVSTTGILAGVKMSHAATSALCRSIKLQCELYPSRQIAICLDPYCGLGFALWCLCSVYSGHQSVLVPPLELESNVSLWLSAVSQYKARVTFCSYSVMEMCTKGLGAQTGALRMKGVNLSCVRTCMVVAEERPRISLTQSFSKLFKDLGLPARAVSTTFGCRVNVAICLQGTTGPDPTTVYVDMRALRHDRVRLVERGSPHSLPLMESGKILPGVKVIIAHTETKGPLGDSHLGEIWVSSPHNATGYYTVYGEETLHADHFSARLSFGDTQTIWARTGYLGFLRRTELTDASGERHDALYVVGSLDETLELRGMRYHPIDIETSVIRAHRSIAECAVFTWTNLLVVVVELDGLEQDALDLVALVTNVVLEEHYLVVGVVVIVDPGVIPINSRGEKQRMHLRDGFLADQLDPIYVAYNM
Described as above.

Experiment [5] deals with endogenous DIP2A from murine brain lysate (mouse (endogenous in brain)) (UniProt Q8BWT5). As to the kind of experiment: co-IP; endogenous proteins, murine brain lysate (lysis buffer A), antibodies overnight at 4 °C, Protein A/G-Agarose; which antibody precipitated is not told.
For experiment [6], the target named is endogenous cortactin from murine brain lysate (mouse (endogenous in brain)) (UniProt Q60598). Described as above.
The target in experiment [7] is GST-cortactin (the variant with the SH3 domain in the GST pull-down of Fig 4A) (UniProt Q60598). As to the kind of experiment: pull-down; GST pull-down with GST-cortactin variants from E. coli on glutathione-sepharose (4 μg), incubated with 1 mg cell or brain lysate overnight at 4 °C (Fig 4A); only the target purified.

These are yes or no findings as the source states them, for the method shown. Binding seen in cells or lysates may run through a third protein. Some results given as binding are weak or reduced against the parent protein; the word gives no strength. For some assays here: Where a sequence is shown, tags or fusion partners need not be part of it.

As to “cortactin of the binding assays of Fig 4B and 4D (construct not stated) (from UniProt Q60598 1-546)”, the binding entry in experiment [1] is “binds”.

For “HA-tagged cortactin (from UniProt Q60598 1-546)”, the values for the binding entry in experiment [2], in experiment [3] and in experiment [4] were “binds”, “no binding” and “no binding”, respectively.

In the case of “endogenous SHANK3 (SH3 and multiple ankyrin repeat domains 3) from murine brain lysate (from UniProt Q4ACU6 1-1730)”, the binding entry in experiment [5] and in experiment [6] was “binds” each time.

Take “DIP2A of the GST pull-down of Fig 4A (construct not stated) (from UniProt Q8BWT5 1-1523)”: in experiment [7], the binding entry was “binds”.

On to “endogenous cortactin from murine brain lysate (from UniProt Q60598 1-546)”, for which the binding entry in experiment [5] is “binds”.
